Laboratory results taken from the supplement of paper PMC5499739.
The full ranking holds about 16,000 sequences; the median of “Z-score” is about -0.37, and the highest 2% start at about 3.2. The list shows a part of the results.

Tested on: RBM10 RRM1-ZnF (GST-tagged construct)
Assay: RNAcompete 7-mer binding Z-score; higher = stronger binding preference
In short: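 GST-tagged RBM10 constructs (20 pmol) and a designed pool of 241 399 RNAs up to 41 nt (1.5 nmol) were allowed to bind for 30 min at 4°C in 1 ml Hepes pH 7.8 buffer with glutathione Sepharose beads. After four 2-min washes at 4°C, bound RNA was identified by microarray hybridisation. Enrichment was scored per heptamer motif as a one-sided Z-score across the probes containing it.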

Sequence | RNAcompete 7-mer binding Z-score
CCUCUUU | -0.974
GCGAUAG | 0.608
AACAACC | -0.72
GUCCCUG | -0.464
CAGUAUG | 0.235
AUCUCUG | -0.857
GGAGUUG | 2.64
AACGUCU | -0.581
UCGUUCA | -0.565
UGUAACU | -0.331
GUAGUGC | 0.495
CGGGCAA | 0.755
CCUGGUA | -0.561
AGUUACC | -0.327
GCCGCUU | -0.867
AGAAAGC | -0.0155
GGCGUUU | 0.179
CCACCUG | -0.49
CGGAUAG | 1.46
UACUUCA | -0.61
AUACCUU | -0.886
UGCCUUC | -0.701
CAGGUCC | -0.357

Sequence | RNAcompete 7-mer binding Z-score
CGAUUUC | -0.87
GGGGCCC | 0.634
UCCAGUG | -0.396
GGCAUAC | 0.153
UAAUCCU | -0.805
UGCCGCA | -0.477
ACGAAUG | 0.355
CUGAGGC | -0.0155
CUCCCGU | -0.604
GGGUAGA | 3.74
GAUCUUC | -0.769
AAUAAGA | 0.115
UCAAUGA | -0.318
GCCAGCG | -0.0544
GUAUGAA | 0.384
AAGGAUG | 4.14
GAUCCGC | -0.772
GCCACUG | -0.327
AAUACCA | -0.655
ACCUUUC | -0.945
GCGCAAC | -0.35
ACCAGGG | 1.48
GCUCCAC | -0.519

Sequence | RNAcompete 7-mer binding Z-score
GACCGAA | -0.727
CCAGCAU | -0.659
CCGCUAC | -0.685
UUGAGGA | 1.14
CCACCGA | -0.295
AACUAAC | -0.633
AGACGGA | 0.949
UACCACU | -0.558
CAGUAUC | -0.548
CUUUGCA | -0.932
GAAAGCU | 0.14
UAUGCGG | 0.43
CCUUGAA | -0.746
GCCAACA | -0.288
CGCCUGU | -0.795
UAUUUGC | -0.818
CUGCUAU | -0.691
UUGAACG | -0.139
AAACGGC | -0.0544
ACUCGGC | -0.62
CGACUUC | -0.785
CAAUGAU | -0.376
CCCUCCA | -0.828

Sequence | RNAcompete 7-mer binding Z-score
AAGUUCG | -0.379
AGACAGA | -0.0999
UAAGGUC | 0.547
AGGUUUU | 0.54
UUUUAGC | -0.672
UCUAGAU | -0.532
UUAAGUG | 0.205
CUACAAU | -0.698
AUGGGGU | 3.92
ACCUGCG | -0.591
UUACCUC | -0.724
GAUUAUG | 0.287
CGGGCGG | 2.65
CUUCCCG | -0.776
AGUUCUG | -0.509
ACGGUUG | 1.78
CCUGAAA | -0.72
CCAAAAU | -0.854
UCCUCGU | -0.591
UCGGUAA | 0.124
GGCCUGA | -0.412
UCUGGUA | -0.435
CGUCUAA | -0.48
